{"source": "PubChem BioAssay AID686978", "about": "(National Center for Advancing Translational Sciences (NCATS), 2013)", "note": "Out of some 420,000 compounds screened, about 64,000 (15%) were called active. This list was built around the results that the source calls inconclusive (neither active nor inactive); the mix of calls is not that of the screen. The call rests on the fitted dose curve; in most records, active means well fitted inhibition curve with a large enough effect; inconclusive means small, poorly fitted or top-dose-only effect; inactive means flat fitted curve, though single readings scatter. No potency is given beside an inconclusive call; the fits are too rough. On the % scale 0 is the no-effect control and ±100 the full control effect; potency means the concentration at half of the fitted maximal effect; tags describe the fitted curve by direction and shape.", "data": [{"test": "qHTS for Inhibitors of human tyrosyl-DNA phosphodiesterase 1 (TDP1): qHTS in cells in absence of CPT; further: nearly all actives have a fitted effect of over 55% in size", "conditions": "DT40 Tdp1-/- hTDP1 cells, no CPT, ATP luminescence, 48 h; activity change, negative = growth inhibition: at 46.2 µM (top of the series) unless noted", "summary_of_the_method": "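Compound effects on proliferation are scored in DT40 Tdp1-/-;hTDP1 cells in the absence of CPT. ATP levels (CellTiter-Glo luminescence) are recorded after a ≥48 hr, 37 °C incubation.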", "values": [{"smiles": "CCOC(=O)C1=C(C)NC(=O)NC1/C(C)=C/c1ccccc1", "note": "(centres undefined)", "Potency": "inconclusive [inhibitor, single point]"}, {"smiles": "Cc1cc(Cl)ccc1NC(=S)NCc1ccccc1", "Potency": "inconclusive [inhibitor, single point]"}, {"smiles": "COc1cc2c(cc1OC)C(CC(=O)O)N(C(=O)Nc1cc(OC)c(OC)c(OC)c1)CC2", "note": "(centres undefined)", "Potency": "inconclusive [inhibitor, full curve]"}, {"smiles": "Cn1c(SCc2nc3ccccc3[nH]2)nnc1-c1cccnc1", "activity change, negative = growth inhibition": "inactive: -16.5%"}, {"smiles": "O=C(Cc1cccc2ccccc12)NO", "activity change, negative = growth inhibition": "inactive: -26.3%"}, {"smiles": "N#C/C(=C/c1ccc(N2CCCCCC2)o1)c1ccc(Cl)cc1", "Potency": "active: 18.4 µM"}, {"smiles": "Cc1ccc(NS(=O)(=O)c2ccc(NC(=O)c3ccc(-c4ccccc4)cc3)cc2)c(C)c1", "Potency": "active: 23.1 µM"}, {"smiles": "Cc1ccc(C)c(S(=O)(=O)N2CCN(C(=O)[C@H](Cc3ccccc3)NC(=O)c3ccco3)CC2)c1", "Potency": "active: 16.4 µM"}, {"smiles": "O=C(NCc1cccnc1)c1cc2nc(-c3cccs3)cc(C(F)(F)Cl)n2n1", "Potency": "inconclusive [inhibitor, single point]"}, {"smiles": "C/C(=N\\OCC(=O)OCC(=O)NCc1ccccc1)c1ccc2c(c1)OCO2", "Potency": "inconclusive [inhibitor, partial curve]"}, {"smiles": "CC1(C)C(=O)Nc2ccccc2N1C(=O)COC(=O)Cc1ccc(Cl)c(Cl)c1", "Potency": "inconclusive [inhibitor, partial curve, poor fit]"}, {"smiles": "O=C(NC(=O)c1ccccc1F)Nc1nc(-c2cccs2)cc(C(F)(F)F)n1", "Potency": "inconclusive [inhibitor, partial curve, poor fit]"}, {"smiles": "CCOC(=O)C1=C(C)Nc2ncnn2C1c1ccc2c(c1)OCO2", "note": "(centres undefined)", "Potency": "inconclusive [inhibitor, partial curve]"}, {"smiles": "O=C(NC1=NCCS1)c1ccc2c(c1)C(=O)N(Cc1ccco1)C2=O", "Potency": "inconclusive [inhibitor, full curve, poor fit]"}, {"smiles": "COc1cc(/C=C/c2cc[n+](C)cc2)ccc1OCC(=O)Nc1ccc(Cl)c(Cl)c1", "Potency": "inconclusive [inhibitor, single point]"}, {"smiles": "CCCNc1c(NS(=O)(=O)c2ccc(C3CCCCC3)cc2)c(=O)oc2ccccc12", "activity change, negative = growth inhibition": "inactive: -21.4%"}, {"smiles": "COc1ccccc1NC(=O)CN1CCN(CC(=O)Nc2ccc3c(c2)OCCO3)CC1", "Potency": "inconclusive [inhibitor, partial curve]"}, {"smiles": "Cc1ccc(C)c(N2CCN(CCCNC(=O)c3ccc4nc(N5CCC(C)CC5)sc4c3)CC2)c1", "Potency": "active: 9.2 µM"}, {"smiles": "O=C(N/N=C/c1ccccc1F)c1cccc2ccccc12", "Potency": "inconclusive [inhibitor, full curve]"}, {"smiles": "CCN(C(=O)CSc1nc2ccccc2c(=O)n1C(C)COC)C1CCS(=O)(=O)C1", "note": "(centres undefined)", "activity change, negative = growth inhibition": "inactive: -11.5%"}, {"smiles": "N#CCCn1ncn(-c2ccccc2)c1=S", "activity change, negative = growth inhibition": "inactive: -17.7%"}, {"smiles": "O=C(NCc1ccco1)c1ccccc1NC(=O)C1CC(=O)N(c2ccc(Cl)cc2)C1", "note": "(centres undefined)", "Potency": "inconclusive [inhibitor, single point]"}, {"smiles": "Oc1cccc(C(O)CNCc2ccc(-c3ccccc3)cc2)c1", "note": "(centres undefined)", "Potency": "inconclusive [inhibitor, single point]"}, {"smiles": "NS(=O)(=O)c1ccc(CCNC(=O)c2ccc(C#CC3(O)CCCCC3)cc2)cc1", "Potency": "active: 2.59 µM"}, {"smiles": "Cc1ccc2oc(-c3cccc(NC(=O)/C=C/c4cccc([N+](=O)[O-])c4)c3C)nc2c1", "Potency": "inconclusive [inhibitor, partial curve]"}, {"smiles": "Cc1cccc(NC(=O)CCN2C(=O)C3C4C=CC(C4)C3C2=O)n1", "note": "(centres undefined)", "Potency": "active: 23.1 µM"}, {"smiles": "Cc1ccc(NC(=O)c2cccc(OC(F)F)c2)c(OC(F)F)c1", "Potency": "inconclusive [inhibitor, partial curve]"}, {"smiles": "CC(c1ccccn1)N(C)C(=O)c1ccc2nc(Cc3cccc(Cl)c3)oc2c1", "note": "(centres undefined)", "Potency": "inconclusive [inhibitor, partial curve]"}, {"smiles": "CCc1ccc(C2=NN(CCC(=O)NCCc3ccccc3)C(=O)CC2)cc1", "Potency": "inconclusive [inhibitor, single point]"}, {"smiles": "CC1(c2ccc(Cl)cc2)NC(=O)N(CC(=O)NCc2ccc(F)cc2)C1=O", "note": "(centres undefined)", "activity change, negative = growth inhibition": "inactive: -15.3%"}, {"smiles": "CN(C)/C=N/C1=C(C#N)C(c2ccc(Br)cc2)c2ccc3ccccc3c2O1", "note": "(centres undefined)", "Potency": "inconclusive [inhibitor, single point]"}, {"smiles": "COC(=O)C1=CN(C(C)C)C=C(C(=O)OC)C1c1cc2c(cc1Br)OCO2", "Potency": "inconclusive [inhibitor, partial curve, poor fit]"}, {"smiles": "Cc1ccc(C)c(N(C(=O)CCC(=O)Nc2cc(C)on2)C(C(=O)NC2CCCC2)c2ccco2)c1", "note": "(centres undefined)", "Potency": "active: 23.1 µM"}, {"smiles": "O=[N+]([O-])c1ccc(N=Nc2ncc[nH]2)cc1", "Potency": "active: 0.731 µM"}, {"smiles": "CCc1c(C)c2cc3c(c(C)c2oc1=O)OCN(CCc1ccc(OC)c(OC)c1)C3", "Potency": "inconclusive [inhibitor, single point]"}, {"smiles": "COc1ccc(N2CCN(C(=O)c3ccc(NS(=O)(=O)c4ccc(F)cc4)cc3)CC2)cc1", "Potency": "inconclusive [inhibitor, single point]"}, {"smiles": "CC1CCN(c2ccc3nnc(CCC(=O)NCCCOC(C)C)n3n2)CC1", "activity change, negative = growth inhibition": "inactive: 22.4%"}, {"smiles": "O=C(COc1ccccc1Cl)N1N=C(c2cccs2)CC1c1ccco1", "note": "(centres undefined)", "Potency": "inconclusive [inhibitor, single point]"}, {"smiles": "Cc1cc(C)c(S(C)(=O)=O)c(Sc2ccc(Cl)cc2)n1", "Potency": "inconclusive [inhibitor, partial curve, poor fit]"}, {"smiles": "CC(Oc1ccccc1Cl)C(=O)Nc1ccc(S(=O)(=O)N2CCCC2)cc1", "note": "(centres undefined)", "Potency": "inconclusive [inhibitor, single point]"}, {"smiles": "Cc1cc(C)c2cc(C#N)c(N3CCCN(C(=S)NCCCN(C)C)CC3)nc2c1", "Potency": "active: 23.1 µM"}, {"smiles": "Cc1nc2scc(-c3ccccc3)c2c(=O)n1/N=C/c1ccco1", "Potency": "inconclusive [inhibitor, partial curve, poor fit]"}, {"smiles": "COc1ccc(-n2c(=O)c3c4c(sc3n(Cc3ccccc3C)c2=O)CCCC4)c(OC)c1", "Potency": "inconclusive [inhibitor, single point]"}, {"smiles": "CCCc1cc(N2CCCC2)n2nc(C)c(-c3ccccc3)c2n1", "Potency": "inconclusive [inhibitor, single point]"}, {"smiles": "CCn1c(=NC(=O)c2ccco2)sc2cccc(F)c21", "Potency": "inconclusive [inhibitor, partial curve]"}, {"smiles": "CCN1c2ccccc2-c2nc3ccccc3n2C1c1ccncc1", "note": "(centres undefined)", "Potency": "inconclusive [inhibitor, single point]"}, {"smiles": "N/C(=N\\c1nc2c(c(=O)[nH]1)CCC2)Nc1ccccc1C(F)(F)F", "Potency": "inconclusive [inhibitor, partial curve]"}, {"smiles": "O=S1(=O)CCN(C2CCCCCCCCCCC2)CC1", "Potency": "active: 20.6 µM"}, {"smiles": "CCCNC(=O)c1c(C)cc(=O)oc1C", "activity change, negative = growth inhibition": "inconclusive: -37.5% [inhibitor]"}, {"smiles": "CCCN1C(=O)SC(CC(=O)Nc2ccccc2C)C1=O", "note": "(centres undefined)", "Potency": "inconclusive [inhibitor, single point]"}, {"smiles": "NC(=O)CC(NC(=O)Cc1ccc(Br)cc1)c1ccc(NC2CC3CCC2C3)c([N+](=O)[O-])c1", "note": "(centres undefined)", "Potency": "inconclusive [inhibitor, single point]"}, {"smiles": "COc1ccc(-c2cc(-c3ccccc3)nc(NN)n2)cc1OC", "Potency": "inconclusive [inhibitor, single point]"}, {"smiles": "CCN(Cc1ccccc1)C(=O)c1cc2cc(OC)c(OC)cc2[nH]1", "Potency": "inconclusive [inhibitor, single point]"}, {"smiles": "COc1ccc(N(CC(=O)NCCc2ccccc2)S(=O)(=O)c2c(C)nn(C)c2C)cc1", "Potency": "inconclusive [inhibitor, partial curve, poor fit]"}, {"smiles": "CCOC(=O)Cc1csc(N/N=C\\c2ccccc2OC)n1", "activity change, negative = growth inhibition": "inactive: -16.2%"}, {"smiles": "COCCNS(=O)(=O)c1cc(C(=O)O)ccc1OC", "activity change, negative = growth inhibition": "inactive: -8.39%"}, {"smiles": "CN(c1ccccc1)S(=O)(=O)c1cccc(NC(=O)CSc2n[nH]c(N)n2)c1", "Potency": "active: 9.2 µM"}, {"smiles": "COc1ccc2[nH]c(-c3cccc(F)c3)cc(=O)c2c1", "Potency": "active: 0.231 µM"}, {"smiles": "O=[N+]([O-])c1ccc(N/N=C/c2cn(Cc3ccc(F)cc3)c3ccccc23)nc1", "Potency": "inconclusive [inhibitor, single point]"}, {"smiles": "Nc1ncnc2c1nc(Sc1ccc(Cl)cc1)n2[C@H]1OC2COP(=O)(O)O[C@H]2[C@@H]1O", "note": "(some centres undefined)", "activity change, negative = growth inhibition": "inactive: -10.2%"}, {"smiles": "CC(Nc1nc(-c2ccc(F)cc2)cs1)c1nc2cc(C(F)(F)F)ccc2n1CCOCCO", "note": "(centres undefined)", "Potency": "inconclusive [inhibitor, single point]"}, {"smiles": "COc1ccc(NC(=O)CN(C)C(=O)c2ccccc2Sc2ncnc3sc(C)c(C)c23)cc1", "Potency": "active: 23.1 µM"}, {"smiles": "O=C(Nc1ccc2c(c1)OCCO2)C1c2ccccc2OCC(=O)N1CCc1ccccc1", "note": "(centres undefined)", "activity change, negative = growth inhibition": "inactive: -2.02%"}, {"smiles": "O=C(NC(CO)C(=O)OCc1ccccc1)OCc1ccccc1", "note": "(centres undefined)", "activity change, negative = growth inhibition": "inactive: -10.1%"}, {"smiles": "CCC(=O)N(CCC(Cc1ccccc1)c1ccco1)Cc1ccco1", "note": "(centres undefined)", "Potency": "active: 14.6 µM"}, {"smiles": "CCCn1c2ccccc2c2cnn(CC(=O)Nc3cc(OC)c(OC)c(OC)c3)c(=O)c21", "Potency": "inconclusive [inhibitor, single point]"}, {"smiles": "COc1ccc(CNC/C=C/c2ccccc2)cc1", "Potency": "inconclusive [inhibitor, single point]"}, {"smiles": "CCn1ccnc1CN(C)C(=O)c1cc(COc2ccccc2SC)on1", "activity change, negative = growth inhibition": "inactive: -29%"}, {"smiles": "CCOC(=O)c1c(C)nc2ccc(C)cn12", "Potency": "inconclusive [inhibitor, partial curve, poor fit]"}]}]}
